Measurements published in the antibiotic and cytotoxicity screens of Wong et al. (2023).
The other results are listed elsewhere or left out.

How the values were obtained:
[1] = tested on: HSkMC (human skeletal muscle cells); assay: cytotoxicity call (relative viability < 0.9); details: 10 µM
[2] = tested on: HepG2; assay: cytotoxicity call (relative viability < 0.9); details: 10 µM
[3] = tested on: S. aureus RN4220; assay: growth inhibition call (relative growth <= 0.2); details: 50 µM

| SMILES | cytotoxicity call [1] | cytotoxicity call [2] | growth inhibition call [3] |
| --- | --- | --- | --- |
| C[C@@H]1CN([C@H](C)CO)C(=O)c2cc(C#CC3(O)CCCC3)cnc2O[C@@H]1CN(C)C(=O)Cc1ccncc1 | inactive | inactive | inactive |
| C[C@@H]1CN([C@H](C)CO)S(=O)(=O)c2ccc(Br)cc2O[C@@H]1CN(C)C(=O)NC1CCCC1 | inactive | inactive | inactive |
| COc1ccc(S(=O)(=O)N(C)C)cc1 | inactive | inactive | inactive |
| C[C@@H]1CN([C@@H](C)CO)C(=O)Cc2cc(NC(=O)Cn3cnnn3)ccc2O[C@@H]1CN(C)S(=O)(=O)c1ccccc1 | inactive | inactive | inactive |
| CCc1nnc(SCC(=O)O)n1N | inactive | inactive | inactive |
| C[C@@H]1CCCCO[C@@H](CN(C)Cc2ccc(C(F)(F)F)cc2)[C@@H](C)CN([C@@H](C)CO)C(=O)c2cc(NS(=O)(=O)c3ccccc3)ccc2O1 | inactive | active | inactive |
| Cc1noc(C)c1S(=O)(=O)Nc1ccc2c(c1)C(=O)N([C@H](C)CO)C[C@H](C)[C@@H](CN(C)C(=O)Nc1ccc(F)cc1)OCCCC[C@@H](C)O2 | inactive | inactive | inactive |
| C[C@@H]1CN([C@H](C)CO)C(=O)Cc2cc(NC(=O)Nc3cccc4ccccc34)ccc2O[C@@H]1CN(C)S(=O)(=O)c1ccc(F)cc1 | inactive | inactive | inactive |
| O=C(Cc1ccncc1)NCC[C@H]1CC[C@@H](NC(=O)C2CCOCC2)[C@@H](CO)O1 | inactive | inactive | inactive |
| CCC(C)C(=O)OC1CC(O)C=C2C=CC(C)C(CCC(O)CC(O)CC(=O)[O-])C21.[Na+] (stereo not given) | inactive | inactive | inactive |
